Assay results: the supplement of paper PMC11417369
± gives the standard deviation of the averaged measurements. Some of the results follow.

tested on: PfAP2-I AP2 domain 3 (GST-tagged); assay: gcPBM binding intensity (ln(normalized median fluorescence intensity)); higher = stronger DNA binding
In short: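 Alexa488 anti-GST antibody, scanned at 488 nm, detected GST-tagged P. falciparum DNA-binding domains that had been expressed in E. coli and incubated for 1 h on an Agilent 4 × 180k array. The array carried primer-extended double-stranded 36-bp intergenic genomic probes and negative controls. Binding intensity is the highest Masliner-normalised natural-log median intensity across replicate spots of either orientation of each probe.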

Sequence | gcPBM binding intensity (ln)
ATATATATATATAGTAGTACTCTCTCTGTATATATA [XGTACX_site3754] | 9.23 ± 0.39
ATTTAGAAAAATAAAACACACATATATCTGTAAATA [CACACA_site6119] | 7.72 ± 0.38
AAAAAAATCTCCAGTGTGCACAATCACATAATATAT [GTGCAC_site9833] | 10.24 ± 0.064
GAGATAAAATAAAACACACACATATATATATAGAAT [CACACA_site2197] | 7.87 ± 0.78
TATAAGCTAAGTTGTTGTACAAAAAGGAAAAGTATA [XGTACX_site3741] | 8.16 ± 0.38
TGTTACATAAAATGCACACTTTCAAATATGCTAATA [CACACA_site2925] | 9.26 ± 0.26
AAATATAAATATACTCGTACATATATATATATATAT [XGTACX_site6940] | 9.43 ± 0.69
TATACGTATTTTATATGTACACATATACATATTTAT [XGTACX_site5301] | 7.88 ± 0.2
TTTTCTTTTAAGTTTGTTTTACACTTTTTATTTTGA [CACACA_negctrl_site1581] | 7.51 ± 0.64
ACTATATTTCATAACAGTACATATTCCTGAAACATC [XGTACX_site4924] | 8.2 ± 0.43
CATGCTTATATGTGCACACACAAAAGAAAAGAAAAA [CACACA_site1655] | 10.2 ± 0.49
ACAATATAAAAAAATTGTACATAATATATAATATTA [XGTACX_site1040] | 7.47 ± 0.35
ATTATTTTATTTATTGGTACGTAATTGTAGATTTCT [XGTACX_site3697] | 7.92 ± 0.49
TGGAGATAAAATAAAACACACACATATATATATATA [CACACA_site8683] | 9.23 ± 0.32
ATACATTCTTATTACTGTACAGGGTTAATTATTTGT [XGTACX_site948] | 7.85 ± 0.65
GCAAAAACAAACGTCACACATACAAAGGCCGTGTAA [CACACA_site6043] | 7.67 ± 0.59
ATGTTGAGTATATATACACACATACAGATATATATA [CACACA_site4967] | 7.82 ± 0.63
TCCACACAATTTATAACATGCAAAAAGGCAATAATA [TGCATGCA_site773] | 8.04 ± 0.61
TAGGTATATAAATAATGTACATATAAACTATATAGA [XGTACX_site2597] | 7.79 ± 0.38
ATTTTTTTGGAATTCACACACAAAAAAAAAAATAAA [CACACA_site2081] | 7.75 ± 0.4
AATTAGACATAATATACACACATATATTATATATAT [CACACA_site2691] | 8.43 ± 0.47
TTCAAAAGATATATCGTGCACATATATATGATGAAA | 11.155 ± 0.007

Sequence | gcPBM binding intensity (ln)
CAAAATATATTGAATTGTACATAAAAATAAAAATTA [XGTACX_site4193] | 7.72 ± 0.53
TTTATTTTATCATTTGCACACGCACGCCCACATAAA [CACACA_site353] | 9.65 ± 0.042
AGCAGTCAGCAGGACAGTACACAGTAGCCAGTAACT [XGTACX_site1999] | 7.44 ± 0.81
TTTTTAGGAAAGGCGGCACACATTTATATATTTATT [CACACA_site3672] | 7.58 ± 0.75
ATAAAATAAATATAACCACACACGAAAGAGAGAGAA [CACACA_site9075] | 8.18 ± 0.75
TTCGCCCTAAATAGAGTGCATTATATATATTAATAT | 11.4 ± 0.58
TTCCAACCAATACAAACATGCATTTGAAAAAATGTA [TGCATGCA_site119] | 7.71 ± 0.36
TTGTATTACATAAATGTTCTTTATTATTTGATAAAA [CACACA_negctrl_site903] | 7.48 ± 0.42
TATATAATATATTAATGTACTTAAAATATATTCTAT [XGTACX_site1235] | 7.51 ± 0.28
TTTTTTAAATATTAAAAATGGGATCTTATAACATAT [GTGCAC_negctrl_site666] | 7.65 ± 0.38
TGTATAAACCCACGTACACACACTAAGTATATCCAA [CACACA_site1605] | 8.32 ± 0.2
TAAAATATATTGCCAGTGCATAATATATGTAATTAT | 10.6 ± 0.6
TTATTTTTAACGTACGCACACATATAAATATATTTA [CACACA_site1976] | 8.48 ± 0.28
AACTAATAAAAAAAAAAAACATTAAACAGGACAAAT [XGTACX_negctrl_site287] | 7.68 ± 0.8
TAAACAAATAAATAAACACACAATATAGGTATATAT [CACACA_site7739] | 7.64 ± 0.61
AATAAAATATACTATTGTACATATGGAACTACTTGA [XGTACX_site8928] | 7.53 ± 0.43
TTGTTTTTAGTTTATACACACCATATTAAAATAATG [CACACA_site5675] | 8.35 ± 0.44
ATTTATTATATATAGTGTACGTTCTTAATTATAATT [XGTACX_site7480] | 7.95 ± 0.35
CACATTTAGAAATAGTTTTATTTTGTATATTCTATT [CACACA_negctrl_site1382] | 7.33 ± 0.49
TTTTGTATATATCACATTAAAAGAAAAAAATATATG [GTGCAC_negctrl_site120] | 7.7 ± 0.39
GTATGTGTATGTGTATGTACATATGTATGTATAAAA [XGTACX_site8191] | 8.45 ± 0.83
TATACATTTATGTACACACACATATCTGTATATTTA [CACACA_site5617] | 7.67 ± 0.28
